# Data from PubChem BioAssay (EPA / NIEHS).
# For some assays here: Most of the hits are listed elsewhere, so they are rarer here than in the full data. Records with an inconclusive call do not appear. More than one record can exist for a structure, and the calls need not agree. The entries are a selection whose mix differs from that of the whole data set. Activity calls are given as the source filed them. The calls were made as follows, unless noted: active = hit-call score of the fitted dose curve at least 0.9, where 1 is the maximum; inactive = score below 0.9.
# Assays:
# [1] = read-out: Human Leukocyte Antigen - DR isotype (HLADR), HLA-DRA (gene 3122); assay: BSK_3C_HLADR: BioMAP Diversity Plus: 3C Assay for Human Leukocyte Antigen - DR isotype (HLADR) Biomarker Activity (AID 2283019); details: actives raise or lower the signal; primary human endothelial cells (HUVEC)
# Summary of the method: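 HUVEC monoculture, HLA-DR measured by ELISA 24 h after chemical dosing. Fitted bidirectionally against DMSO baseline; parallel SRB staining assessed cytotoxicity, with 3C proliferation read by SRB at 48 h.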
# [2] = read-out: Human Leukocyte Antigen - DR isotype (HLADR), HLA-DRA (gene 3122); assay: BSK_CASM3C_HLADR: BioMAP Diversity Plus: CASM3C Assay for Human Leukocyte Antigen - DR isotype (HLADR) Biomarker Activity (AID 2283043); details: actives raise or lower the signal; primary human coronary artery smooth muscle cells;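 also: cell-surface HLA-DR protein level quantified by ELISA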
# [3] = read-out: Intercellular Adhesion Molecule 1 (ICAM1), ICAM1 (gene 3383); assay: BSK_KF3CT_ICAM1: BioMAP Diversity Plus: KF3CT Assay for Intercellular Adhesion Molecule 1 (ICAM1) Biomarker Activity (AID 2283067); details: actives raise or lower the signal; primary human keratinocytes with fibroblasts
# Summary of the method: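 Human keratinocyte–foreskin fibroblast co-culture was treated for 24 h. Cell-surface ICAM-1 was quantified by ELISA, fitted bidirectionally relative to DMSO. Cytotoxicity was checked in parallel cultures by SRB total-protein staining.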
# [4] = target: human Neurokinin, NK2 Receptor, TACR2 (gene 6865) (UniProt P21452); assay: NVS_GPCR_hNK2: NovaScreen (NVS) G Protein-Coupled Receptor Assay for human Neurokinin, NK2 Receptor (AID 2283278; active = hit-call score of the fitted dose curve at least 0.9, where 1 is the maximum)
# Chain of UniProt P21452 (P21452 whole entry, looked up): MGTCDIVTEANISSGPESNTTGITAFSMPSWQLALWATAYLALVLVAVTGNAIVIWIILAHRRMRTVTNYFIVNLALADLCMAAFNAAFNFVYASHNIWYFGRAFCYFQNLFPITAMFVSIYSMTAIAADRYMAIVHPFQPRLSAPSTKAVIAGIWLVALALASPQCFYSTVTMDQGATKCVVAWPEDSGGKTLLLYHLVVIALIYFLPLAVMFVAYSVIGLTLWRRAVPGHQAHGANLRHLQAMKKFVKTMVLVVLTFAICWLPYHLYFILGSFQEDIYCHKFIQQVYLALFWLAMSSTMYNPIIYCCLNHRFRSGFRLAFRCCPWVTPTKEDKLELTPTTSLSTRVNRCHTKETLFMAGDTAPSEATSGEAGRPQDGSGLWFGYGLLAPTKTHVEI
# Experimental: NVS_GPCR_hNK2 is a biochemical, single-readout assay that uses extracted gene-proteins from CHO in a cell-free assay. Measurements were taken 4 hours after chemical dosing in a 96-well plate.NVS_GPCR_hNK2 is one of one assay component(s) measured or calculated from the NVS_GPCR_hNK2 assay. It is designed to make measurements of radioligand binding, a form of binding reporter, as detected with scintillation counting signals by Filter-based radiodetection technology.Data from the assay component NVS_GPCR_hNK2 was analyzed into 1 assay endpoint. This assay endpoint, NVS_GPCR_hNK2, was analyzed in the positive analysis fitting direction relative to DMSO as the negative control and baseline of activity. […] Furthermore, this assay endpoint can be referred to as a primary readout, because the performed assay has only produced 1 assay endpoint. […]
# Binding assays used specific radioligands (tritiated, iodinated) with non-radioactive competitive displacement ligands in agonist or antagonist protocols (as indicated) and various reference compounds and inhibitors to titrate specific binding to receptors and transporters. Most enzyme assays (CYPs, kinases, phosphatases, proteases, HDACs) used recombinant protein and specific substrates (fluorescence mostly, some colorimetric and radioactive) and inhibitors, followed by a biochemical separation of substrate and product. […]
# [5] = read-out: Insulin Like Growth Factor 1 (IGF1), IGF1 (gene 3479); assay: LTEA_HepaRG_IGF1: Life Technologies and Expression Analysis (LTEA) Assay for Insulin Like Growth Factor 1 (IGF1) using HepaRG (AID 2283506); details: actives raise or lower the signal; mRNA level, 48 h
# Summary of the method: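 Cells are thawed, plated and cultured 48 h, then exposed in duplicate to chemical (highest 100 uM, half-log steps, 0.5% DMSO) for another 48 h. Total RNA is analysed by Fluidigm qRT-PCR for IGF1 expression relative to vehicle.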
# [6] = read-out: Potassium channel subfamily K member 1 (KCNK1), KCNK1 (gene 3775); assay: LTEA_HepaRG_KCNK1: Life Technologies and Expression Analysis (LTEA) Assay for Potassium channel subfamily K member 1 (KCNK1) using HepaRG (AID 2283511); details: actives raise or lower the signal; mRNA level, 48 h
# Summary of the method: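 KCNK1 transcript measured by TaqMan qRT-PCR against three housekeeping genes, after HepaRG cells were treated 48 h with eight half-log concentrations (top 100 uM, 0.5% DMSO). Curves fitted bidirectionally relative to vehicle.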
# [7] = Tanguay_ZF_120hpf_EYE_legacy: (Legacy) Oregon State University Tanguay Lab 120 Hour Post-fertilization zebrafish Assay for Eye Malformation (AID 2283636; active = hit-call score of the fitted dose curve at least 0.9, where 1 is the maximum;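 also: binary presence or absence of eye malformation scored by brightfield in 120 hpf larvae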)
# Summary of the method: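 Binary brightfield scoring of eye defects at 120 hpf after static exposure from 6 hpf of single pronase-dechorionated wild-type embryos (28C, 0.64% DMSO). Non-mortality endpoints omitted where embryos died; fit vs DMSO.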
# [8] = ArunA_NOG_NucleusCount: ArunA Biomedical's Neurite Outgrowth (NOG) Assay for Nucleus Count (AID 2283756; active = hit-call score of the fitted dose curve at least 0.9, where 1 is the maximum)
# Summary of the method: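 Viable neuron count, from Hoechst nuclei passing size and intensity gates, imaged at 20x on differentiated H9-derived human neurons. Exposure lasted 48 h from seeding; activity was scored relative to DMSO.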
# [9] = ACEA_AR_antagonist_AUC_viability: ACEA Biosciences xCELLigence Real-Time Cell Analysis on Androgen Receptor Antagonism for Viability (AID 2283776; active = hit-call score of the fitted dose curve at least 0.9, where 1 is the maximum;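 also: 22Rv1 human prostate cancer cells growing on impedance electrode plates; area under impedance growth curve at 80 h after dosing as viability; hits lower the growth signal relative to DMSO meaning cytotoxicity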)
# Summary of the method: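 Real-time electrical impedance tracks 22Rv1 proliferation after continuous compound exposure (top 100 uM final, 1:4 steps, 8 concentrations). The 80 h area-under-curve serves as the cytotoxicity readout relative to DMSO.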
# [10] = read-out: Monocyte Chemoattractant Protein-1 (MCP1), CCL2 (gene 6347); assay: BSK_3C_MCP1: BioMAP Diversity Plus: 3C Assay for Monocyte Chemoattractant Protein-1 (MCP1) Biomarker Activity (AID 2283017); details: actives raise or lower the signal; primary human endothelial cells (HUVEC)
# Summary of the method: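 Human umbilical vein endothelial cells (3C system) exposed to chemicals for 24 h; MCP-1 quantified by ELISA against the DMSO baseline with bidirectional fitting, and parallel SRB staining used to assess cytotoxicity.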
# [11] = read-out: Monokine induced gamma interferon (MIG), CXCL9 (gene 4283); assay: BSK_3C_MIG: BioMAP Diversity Plus: 3C Assay for Monokine induced gamma interferon (MIG) Biomarker Activity (AID 2283021); details: actives raise or lower the signal; primary human endothelial cells (HUVEC);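 also: MIG protein level measured by immunoassay in the treated endothelial cultures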
# Summary of the method: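 Endothelial primary cells (human umbilical vein) are dosed with test chemical in the 3C system. MIG levels are measured by ELISA at 24 h and fitted in both directions relative to DMSO.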
# [12] = target: human Serotonin, 5-Hydroxytryptamine Receptor 2A (5HT2A), HTR2A (gene 3356) (UniProt P28223); assay: NVS_GPCR_h5HT2A: NovaScreen (NVS) G Protein-Coupled Receptor Assay for human Serotonin, 5-Hydroxytryptamine Receptor 2A (5HT2A) (AID 2283249; active = hit-call score of the fitted dose curve at least 0.9, where 1 is the maximum)
# Chain of UniProt P28223 (P28223 whole entry, looked up): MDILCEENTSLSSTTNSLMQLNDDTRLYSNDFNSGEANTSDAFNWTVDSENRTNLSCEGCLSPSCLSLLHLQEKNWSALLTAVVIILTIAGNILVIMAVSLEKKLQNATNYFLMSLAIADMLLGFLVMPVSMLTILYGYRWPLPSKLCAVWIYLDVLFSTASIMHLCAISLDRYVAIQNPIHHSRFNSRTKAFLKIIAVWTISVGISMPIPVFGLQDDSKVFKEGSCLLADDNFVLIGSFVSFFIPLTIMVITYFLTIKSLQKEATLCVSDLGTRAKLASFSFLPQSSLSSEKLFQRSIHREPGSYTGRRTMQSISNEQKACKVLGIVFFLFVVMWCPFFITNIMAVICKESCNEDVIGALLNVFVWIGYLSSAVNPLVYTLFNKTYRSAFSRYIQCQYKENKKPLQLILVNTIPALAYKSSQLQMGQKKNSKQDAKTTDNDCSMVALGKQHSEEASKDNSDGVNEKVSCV
# Summary of the method: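 Radioligand displacement on human cortex tissue extract, counted by filtration and scintillation 1.5 h post-dosing. Initial single-concentration screen at 25 uM in duplicate, concentration series in follow-up; DMSO as baseline.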
# [13] = read-out: Fatty acid synthase (Homo sapiens) (UniProt P49327); assay: LTEA_HepaRG_FASN: Life Technologies and Expression Analysis (LTEA) Assay for Fatty Acid Synthase (FASN) using HepaRG (AID 2283448); details: actives raise or lower the signal; mRNA level, 48 h;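 also: differentiated human HepaRG liver cells in serum-free induction medium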
# Chain of UniProt P49327 (P49327 whole entry, looked up): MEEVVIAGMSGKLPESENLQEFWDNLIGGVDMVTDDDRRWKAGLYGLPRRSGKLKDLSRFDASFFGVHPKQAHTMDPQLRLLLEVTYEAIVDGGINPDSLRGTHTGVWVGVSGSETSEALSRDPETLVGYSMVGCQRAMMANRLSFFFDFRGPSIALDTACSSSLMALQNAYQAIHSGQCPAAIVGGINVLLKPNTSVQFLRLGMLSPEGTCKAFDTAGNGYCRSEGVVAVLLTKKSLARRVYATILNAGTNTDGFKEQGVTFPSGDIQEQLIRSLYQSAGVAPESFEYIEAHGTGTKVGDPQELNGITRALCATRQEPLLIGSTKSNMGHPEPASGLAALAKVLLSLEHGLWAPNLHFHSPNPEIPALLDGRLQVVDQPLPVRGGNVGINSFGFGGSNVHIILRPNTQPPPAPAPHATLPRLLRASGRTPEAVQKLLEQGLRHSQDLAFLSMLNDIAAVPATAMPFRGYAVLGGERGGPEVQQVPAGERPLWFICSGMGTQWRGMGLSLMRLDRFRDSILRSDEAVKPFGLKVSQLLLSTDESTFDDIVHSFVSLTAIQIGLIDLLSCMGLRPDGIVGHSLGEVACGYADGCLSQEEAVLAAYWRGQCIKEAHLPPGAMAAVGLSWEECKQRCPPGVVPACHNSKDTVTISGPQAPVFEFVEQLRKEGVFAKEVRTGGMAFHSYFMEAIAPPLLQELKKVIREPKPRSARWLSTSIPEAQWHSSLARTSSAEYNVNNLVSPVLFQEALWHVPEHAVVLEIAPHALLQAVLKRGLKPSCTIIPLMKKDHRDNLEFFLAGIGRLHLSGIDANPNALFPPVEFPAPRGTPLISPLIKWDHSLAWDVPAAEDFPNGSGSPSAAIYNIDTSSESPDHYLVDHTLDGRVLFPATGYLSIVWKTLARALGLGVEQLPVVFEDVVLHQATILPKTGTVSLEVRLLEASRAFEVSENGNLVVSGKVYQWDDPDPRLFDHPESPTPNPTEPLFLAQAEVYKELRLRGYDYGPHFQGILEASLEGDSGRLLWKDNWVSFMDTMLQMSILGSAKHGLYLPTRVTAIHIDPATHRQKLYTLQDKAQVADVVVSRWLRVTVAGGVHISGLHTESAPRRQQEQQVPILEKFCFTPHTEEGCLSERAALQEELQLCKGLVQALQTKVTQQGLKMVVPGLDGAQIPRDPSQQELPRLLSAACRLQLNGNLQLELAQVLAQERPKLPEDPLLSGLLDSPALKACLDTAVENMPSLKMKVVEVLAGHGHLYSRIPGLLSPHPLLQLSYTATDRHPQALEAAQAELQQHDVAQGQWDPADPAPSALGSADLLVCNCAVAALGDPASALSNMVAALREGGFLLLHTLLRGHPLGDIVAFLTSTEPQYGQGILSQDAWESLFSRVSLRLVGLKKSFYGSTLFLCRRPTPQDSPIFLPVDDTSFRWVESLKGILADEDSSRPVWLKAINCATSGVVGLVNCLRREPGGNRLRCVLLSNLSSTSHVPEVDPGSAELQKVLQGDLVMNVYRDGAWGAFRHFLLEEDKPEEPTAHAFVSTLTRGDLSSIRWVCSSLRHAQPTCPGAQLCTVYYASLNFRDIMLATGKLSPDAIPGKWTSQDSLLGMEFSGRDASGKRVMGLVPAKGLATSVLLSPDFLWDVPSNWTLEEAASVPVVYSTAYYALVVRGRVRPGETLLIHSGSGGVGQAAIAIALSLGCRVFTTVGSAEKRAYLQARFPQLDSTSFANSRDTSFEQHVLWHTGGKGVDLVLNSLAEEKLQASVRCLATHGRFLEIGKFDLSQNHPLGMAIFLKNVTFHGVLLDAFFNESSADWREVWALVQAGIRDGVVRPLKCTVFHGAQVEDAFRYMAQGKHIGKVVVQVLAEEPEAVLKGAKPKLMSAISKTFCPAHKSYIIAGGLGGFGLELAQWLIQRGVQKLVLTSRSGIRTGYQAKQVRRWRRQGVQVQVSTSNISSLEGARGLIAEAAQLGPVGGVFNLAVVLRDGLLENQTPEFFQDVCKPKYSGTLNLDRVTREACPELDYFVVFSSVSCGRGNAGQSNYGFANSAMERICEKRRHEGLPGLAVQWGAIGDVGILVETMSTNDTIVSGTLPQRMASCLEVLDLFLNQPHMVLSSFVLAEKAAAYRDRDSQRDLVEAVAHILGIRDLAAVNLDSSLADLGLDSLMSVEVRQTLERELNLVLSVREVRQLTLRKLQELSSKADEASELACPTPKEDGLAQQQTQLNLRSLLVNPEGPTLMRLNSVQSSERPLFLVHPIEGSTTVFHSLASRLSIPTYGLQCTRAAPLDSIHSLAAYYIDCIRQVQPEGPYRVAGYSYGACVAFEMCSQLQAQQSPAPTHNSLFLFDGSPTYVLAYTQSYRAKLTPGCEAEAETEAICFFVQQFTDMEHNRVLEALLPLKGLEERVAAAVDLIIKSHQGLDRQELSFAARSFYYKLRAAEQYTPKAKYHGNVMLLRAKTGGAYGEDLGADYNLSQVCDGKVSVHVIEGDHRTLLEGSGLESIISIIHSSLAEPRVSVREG
# Summary of the method: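 Cells were plated, cultured 48 h, switched to serum-free induction medium, then dosed in duplicate (max 100 uM, half-log dilutions, 0.5% DMSO) for 48 h. RNA was then isolated and FASN quantified by qRT-PCR.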
# [14] = read-out: E-selectin (Homo sapiens) (UniProt P16581); assay: BSK_3C_Eselectin: BioMAP Diversity Plus: 3C Assay for Eselectin Biomarker Activity (AID 2283015); details: actives raise or lower the signal; primary human endothelial cells (HUVEC)
# Chain of UniProt P16581 (P16581 whole entry, looked up): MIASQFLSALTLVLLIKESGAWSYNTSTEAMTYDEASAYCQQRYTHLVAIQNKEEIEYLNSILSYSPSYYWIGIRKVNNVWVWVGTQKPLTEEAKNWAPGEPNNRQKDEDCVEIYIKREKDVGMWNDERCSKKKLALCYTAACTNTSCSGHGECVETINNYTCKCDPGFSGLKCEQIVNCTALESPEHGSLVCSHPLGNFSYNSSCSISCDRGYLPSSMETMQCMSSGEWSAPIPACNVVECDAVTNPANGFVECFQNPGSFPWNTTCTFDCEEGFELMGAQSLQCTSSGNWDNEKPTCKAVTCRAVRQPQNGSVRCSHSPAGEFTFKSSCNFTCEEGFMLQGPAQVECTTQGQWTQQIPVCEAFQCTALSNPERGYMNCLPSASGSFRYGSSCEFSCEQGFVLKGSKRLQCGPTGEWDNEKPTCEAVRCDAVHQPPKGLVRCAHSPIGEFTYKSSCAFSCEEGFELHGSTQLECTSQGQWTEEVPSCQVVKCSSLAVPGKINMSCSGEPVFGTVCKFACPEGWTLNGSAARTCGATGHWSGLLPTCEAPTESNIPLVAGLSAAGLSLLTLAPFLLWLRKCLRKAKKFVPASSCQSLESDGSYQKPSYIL
# Summary of the method: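 Primary human umbilical vein endothelial cells (3C system), read 24 h after compound addition; E-selectin measured by ELISA. Bidirectional curve fitting against DMSO baseline; cytotoxicity by parallel SRB total-protein staining.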
# [15] = BSK_3C_SRB: Viability Assessment in the BioMAP Diversity Plus: 3C Assay (AID 2283023); details: primary human endothelial cells (HUVEC);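 also: fitted both ways against DMSO so a hit may be signal rise or drop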
# Summary of the method: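 Human umbilical vein endothelial cells in the 3C system, treated 24 h. Total protein measured by 0.1% sulforhodamine B staining after 10% TCA fixation, read at 560 nm; bidirectional fit versus DMSO.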
# [16] = BSK_3C_Vis: BioMAP Diversity Plus: 3C Assay for Morphology Visualization (AID 2283025); details: primary human endothelial cells (HUVEC);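 also: fitted both ways so gain or loss versus DMSO counts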
# Summary of the method: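 Morphology read by light microscopy serves as a background control for the multiplexed 3C assay in human umbilical vein endothelial cells, taken 24 h after dosing, with DMSO as the negative control and bidirectional curve fitting.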
# [17] = read-out: Transforming growth factor beta 1 (TGFb1), TGFB1 (gene 7040); assay: BSK_BE3C_TGFb1: BioMAP Diversity Plus: BE3C Assay for Transforming growth factor beta 1 (TGFb1) Biomarker Activity (AID 2283036); details: actives raise or lower the signal; primary human bronchial epithelial cells
# Summary of the method: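 Bronchial epithelial primary cells are treated with test chemical, then TGF-b1 is quantified by ELISA after 24 hours. Values derive from bidirectional fitting against DMSO, with cytotoxicity checked by SRB staining in parallel cultures.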
# [18] = read-out: CD40, CD40 (gene 958); assay: BSK_SAg_CD40: BioMAP Diversity Plus: SAg Assay for CD40 Biomarker Activity (AID 2283088); details: actives raise or lower the signal; primary human HUVEC with PBMC
# Summary of the method: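 HUVEC plus PBMC co-culture, superantigen-activated, with CD40 read by ELISA 24 h after dosing. Curves fitted in both directions against DMSO. Overt cytotoxicity checked by parallel SRB total-protein staining.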
# [19] = read-out: Interleukin-8 (IL8), CXCL8 (gene 3576); assay: BSK_SAg_IL8: BioMAP Diversity Plus: SAg Assay for Interleukin-8 (IL8) Biomarker Activity (AID 2283094); details: actives raise or lower the signal; primary human HUVEC with PBMC
# Summary of the method: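 Chemicals were dosed onto a human endothelial–PBMC co-culture, and IL-8 was quantified by ELISA after 24 h. Both increases and decreases were fitted relative to DMSO.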
# [20] = target: Cellular tumor antigen p53 (Homo sapiens) (UniProt P04637); assay: TOX21_p53_BLA_p5_ratio: Tox21 HCT-116 p53 Agonism Beta-lactamase Assay, Ratio, Phase 5 (AID 2283599; active = hit-call score of the fitted dose curve at least 0.9, where 1 is the maximum)
# Chain of UniProt P04637 (P04637 whole entry, looked up): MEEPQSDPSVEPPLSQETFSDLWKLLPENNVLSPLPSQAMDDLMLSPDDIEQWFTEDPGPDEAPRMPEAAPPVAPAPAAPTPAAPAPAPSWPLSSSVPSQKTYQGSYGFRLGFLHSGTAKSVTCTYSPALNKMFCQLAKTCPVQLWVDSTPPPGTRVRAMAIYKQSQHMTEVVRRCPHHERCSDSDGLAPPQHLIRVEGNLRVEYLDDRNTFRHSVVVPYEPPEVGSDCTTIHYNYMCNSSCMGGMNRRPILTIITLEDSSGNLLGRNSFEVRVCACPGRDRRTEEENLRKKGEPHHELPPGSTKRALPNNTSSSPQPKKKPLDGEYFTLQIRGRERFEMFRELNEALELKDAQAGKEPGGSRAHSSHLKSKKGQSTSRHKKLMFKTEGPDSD
# Summary of the method: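 Beta-lactamase reporter ratio (blue 460 nm over green 530 nm, 405 nm excitation) after 2 h CCF4-AM loading, in HCT-116 cells exposed 16 h at 37 C to compounds pinned at 217-fold dilution. Increases relative to DMSO baseline scored.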
# [21] = ACEA_AR_agonist_AUC_viability: ACEA Biosciences xCELLigence Real-Time Cell Analysis on Androgen Receptor Agonism for Viability (AID 2283775; active = hit-call score of the fitted dose curve at least 0.9, where 1 is the maximum;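 also: viability read 80 hours after compound addition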)
# Summary of the method: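 22Rv1 cells; impedance growth kinetics; 8-pt 1:4 dilutions from 100 uM top final, ≤0.5% DMSO; n = 2; 80 h read; AUC viability, loss-of-signal vs DMSO.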
# [22] = CCTE_Simmons_MITO_basal_resp_rate: CCTE's HepG2 Seahorse XF Respirometric Screening Assay at Basal Respiratory State, Simmons Lab (AID 2284001); details: actives raise or lower the signal
# Summary of the method: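 Basal-phase OCR in HepG2 cells, read at 6-min intervals across a 72-min run, with test compound injected at 125 nM–100 uM final (7 points). Fitted both directions against DMSO; three biological replicates per concentration.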
smiles,measurement,setting,value
O=c1c(O)c(-c2ccc(O)c(O)c2)oc2cc(O)cc(O)c12,AC50,[1],active: 13.3 µM
same,AC50,[2],active: 14.9 µM
same,AC50,[3],active: 12 µM
same,outcome,[4],inactive
same,AC50,[5],active: 74.6 µM
same,outcome,[6],inactive
same,outcome,[7],inactive
same,AC50,[8],active: 5.49 µM
same,AC50,[9],active: 12.8 µM
CCCCC(CC)COC(=O)C=Cc1ccc(OC)cc1 (stereo not drawn),AC50,[10],active: 29.5 µM
CCN(CC)CCNc1ccc(CNC=O)c2sc3ccc(OC)cc3c(=O)c12,AC50,[11],active: 35.7 µM
same,AC50,[12],active: 15.2 µM
same,AC50,[13],active: 35.7 µM
CC(=O)C1(C)CC2=C(CCCC2(C)C)CC1C (stereo not drawn),AC50,[14],active: 10.1 µM
same,AC50,[2],active: 12.4 µM
CCCCCCCCCCCC[N+](C)(C)C,AC50,[15],active: 22.5 µM
same,AC50,[16],active: 16.3 µM
same,AC50,[17],active: 20 µM
same,AC50,[18],active: 11.1 µM
same,AC50,[19],active: 30.6 µM
same,outcome,[20],inactive
same,AC50,[21],active: 12.1 µM
same,AC50,[22],active: 35.5 µM
